# In the supplement of paper PMC8728848:
# This is one part of the list.
# B1: EPL1 (Trichoderma atroviride), A0PCX2 (protein)
# chain: MQLSNLFKLALFTAAVSADTVSYDTGYDDASRSLTVVSCSDGTNGLITRYHWQTQGQIPRFPYIGGAQAVAGWNSPNCGTCWKLTYSGKTIYVLAIDHTAAGFNIGLDAMNALTNGNAVALGRVSATASQVAVSNCGL
# How the values were obtained:
# Test in all cases: glycan array binding signal (z-score within array); higher = stronger binding
# Details in all cases: glycan notation: IUPAC condensed, linker removed
# [1] = biological target: GalNAc(b1-4)GlcNAc
# How it was run: (§1)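 The Consortium for Functional Glycomics database supplied 3228 glycan arrays, of which those lacking an available protein sequence were dropped. The binding signal, a within-array Z-score, was averaged across arrays of the same protein sequence and across linkers. Negative scores can be read as non-binding.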
# [2] = biological target: GalNAc(b1-4)GlcNAc(b1-2)Man
# How it was run: as §1
# [3] = biological target: GalNAc(b1-4)GlcNAc(b1-2)Man(a1-3)[GalNAc(b1-4)GlcNAc(b1-2)Man(a1-6)]Man(b1-4)GlcNAc(b1-4)GlcNAc
# How it was run: as §1
# [4] = biological target: GalNAc(b1-4)GlcNAc(b1-3)GalNAc(b1-4)GlcNAc
# How it was run: as §1
# [5] = biological target: GalNAc(b1-4)GlcNAc6S
# How it was run: as §1
# [6] = biological target: GalNAc(b1-6)GalNAc
# How it was run: as §1
# [7] = biological target: GalNAc3S(b1-4)GlcNAc
# How it was run: as §1
# [8] = biological target: GalNAc3S(b1-4)GlcNAc3S
# How it was run: as §1
# [9] = biological target: GalNAc3S(b1-4)[Fuc(a1-3)]GlcNAc
# How it was run: as §1
# [10] = biological target: GalNAc4S6S(b1-4)GlcNAc
# How it was run: as §1
# [11] = biological target: GalNAc6S(b1-4)GlcNAc
# How it was run: as §1
# [12] = biological target: Glc(a1-4)Glc
# How it was run: as §1
# [13] = biological target: Glc(a1-4)Glc(a1-4)Glc(a1-4)Glc
# How it was run: as §1
# [14] = biological target: Glc(a1-6)Glc(a1-6)Glc
# How it was run: as §1
# [15] = biological target: Glc(a1-6)Glc(a1-6)Glc(a1-6)Glc
# How it was run: as §1
# [16] = biological target: Glc(b1-4)Glc
# How it was run: as §1
# [17] = biological target: Glc(b1-6)Glc
# How it was run: as §1
# [18] = biological target: GlcA(b1-3)Gal
# How it was run: as §1
# [19] = biological target: GlcA(b1-3)GlcNAc
# How it was run: as §1
# [20] = biological target: GlcA(b1-6)Gal
# How it was run: as §1
# [21] = biological target: GlcA3S(b1-3)Gal(b1-4)GlcNAc(b1-2)Man
# How it was run: as §1
# [22] = biological target: GlcA3S(b1-3)Gal(b1-4)GlcNAc(b1-3)Gal(b1-4)Glc
# How it was run: as §1
# [23] = biological target: GlcNAc(a1-3)Gal(b1-4)GlcNAc
# How it was run: as §1
# [24] = biological target: GlcNAc(a1-4)Gal(b1-3)GlcNAc
# How it was run: as §1
# [25] = biological target: GlcNAc(a1-4)Gal(b1-4)GalNAc
# How it was run: as §1
# [26] = biological target: GlcNAc(a1-4)Gal(b1-4)GlcNAc
# How it was run: as §1
# [27] = biological target: GlcNAc(a1-4)Gal(b1-4)GlcNAc(b1-3)Gal(b1-4)Glc
# How it was run: as §1
# [28] = biological target: GlcNAc(a1-4)Gal(b1-4)GlcNAc(b1-3)Gal(b1-4)GlcNAc
# How it was run: as §1
# [29] = biological target: GlcNAc(a1-4)Gal(b1-4)GlcNAc(b1-3)Gal(b1-4)GlcNAc(b1-3)Gal(b1-4)GlcNAc
# How it was run: as §1
# [30] = biological target: GlcNAc(a1-4)Gal(b1-4)GlcNAc(b1-3)Gal(b1-4)[Fuc(a1-3)]GlcNAc(b1-3)Gal(b1-4)[Fuc(a1-3)]GlcNAc
# How it was run: as §1
# [31] = biological target: GlcNAc(a1-6)Gal(b1-4)GlcNAc
# How it was run: as §1
# [32] = biological target: GlcNAc(b1-2)Gal(b1-3)GalNAc
# How it was run: as §1
# [33] = biological target: GlcNAc(b1-2)Man(a1-3)[GlcNAc(b1-2)Man(a1-6)]Man(b1-4)GlcNAc(b1-4)GlcNAc
# How it was run: as §1
# [34] = biological target: GlcNAc(b1-2)Man(a1-3)[GlcNAc(b1-2)Man(a1-6)]Man(b1-4)GlcNAc(b1-4)[Fuc(a1-6)]GlcNAc
# How it was run: as §1
# [35] = biological target: GlcNAc(b1-2)Man(a1-3)[GlcNAc(b1-4)][GlcNAc(b1-2)Man(a1-6)]Man(b1-4)GlcNAc(b1-4)GlcNAc
# How it was run: as §1
# [36] = biological target: GlcNAc(b1-2)Man(a1-3)[GlcNAc(b1-4)][GlcNAc(b1-2)Man(a1-6)]Man(b1-4)GlcNAc(b1-4)[Fuc(a1-6)]GlcNAc
# How it was run: as §1
# [37] = biological target: GlcNAc(b1-2)[GlcNAc(b1-4)]Man(a1-3)[GlcNAc(b1-2)Man(a1-6)]Man(b1-4)GlcNAc(b1-4)GlcNAc
# How it was run: as §1
# [38] = biological target: GlcNAc(b1-2)[GlcNAc(b1-4)]Man(a1-3)[GlcNAc(b1-4)][GlcNAc(b1-2)Man(a1-6)]Man(b1-4)GlcNAc(b1-4)GlcNAc
# How it was run: as §1
# [39] = biological target: GlcNAc(b1-2)[GlcNAc(b1-4)]Man(a1-3)[GlcNAc(b1-4)][GlcNAc(b1-2)[GlcNAc(b1-6)]Man(a1-6)]Man(b1-4)GlcNAc(b1-4)GlcNAc
# How it was run: as §1
# [40] = biological target: GlcNAc(b1-2)[GlcNAc(b1-4)]Man(a1-3)[GlcNAc(b1-4)][GlcNAc(b1-2)[GlcNAc(b1-6)]Man(a1-6)]Man(b1-4)GlcNAc(b1-4)[Fuc(a1-6)]GlcNAc
# How it was run: as §1
# [41] = biological target: GlcNAc(b1-2)[GlcNAc(b1-6)]Man(a1-6)[GlcNAc(b1-2)Man(a1-3)]Man(b1-4)GlcNAc(b1-4)GlcNAc
# How it was run: as §1
# [42] = biological target: GlcNAc(b1-2)[GlcNAc(b1-6)]Man(a1-6)[GlcNAc(b1-2)Man(a1-3)]Man(b1-4)GlcNAc(b1-4)[Fuc(a1-6)]GlcNAc
# How it was run: as §1
# [43] = biological target: GlcNAc(b1-2)[GlcNAc(b1-6)]Man(a1-6)[GlcNAc(b1-4)][GlcNAc(b1-2)Man(a1-3)]Man(b1-4)GlcNAc(b1-4)GlcNAc
# How it was run: as §1
# [44] = biological target: GlcNAc(b1-3)Fuc
# How it was run: as §1
# [45] = biological target: GlcNAc(b1-3)Gal
# How it was run: as §1
binder,measurement,setting,value
B1,glycan array binding signal (z-score),[1],1.34
same,glycan array binding signal (z-score),[2],-0.174
same,glycan array binding signal (z-score),[3],0.03
same,glycan array binding signal (z-score),[4],0.338
same,glycan array binding signal (z-score),[5],0.068
same,glycan array binding signal (z-score),[6],0.548
same,glycan array binding signal (z-score),[7],-0.137
same,glycan array binding signal (z-score),[8],-0.208
same,glycan array binding signal (z-score),[9],0.031
same,glycan array binding signal (z-score),[10],-0.308
same,glycan array binding signal (z-score),[11],-0.326
same,glycan array binding signal (z-score),[12],-0.003
same,glycan array binding signal (z-score),[13],-0.16
same,glycan array binding signal (z-score),[14],-0.009
same,glycan array binding signal (z-score),[15],-0.044
same,glycan array binding signal (z-score),[16],-0.446
same,glycan array binding signal (z-score),[17],-0.664
same,glycan array binding signal (z-score),[18],-0.134
same,glycan array binding signal (z-score),[19],-0.274
same,glycan array binding signal (z-score),[20],-0.096
same,glycan array binding signal (z-score),[21],-0.347
same,glycan array binding signal (z-score),[22],0.009
same,glycan array binding signal (z-score),[23],-0.04
same,glycan array binding signal (z-score),[24],0.056
same,glycan array binding signal (z-score),[25],-0.278
same,glycan array binding signal (z-score),[26],-0.561
same,glycan array binding signal (z-score),[27],-0.128
same,glycan array binding signal (z-score),[28],-0.045
same,glycan array binding signal (z-score),[29],-0.215
same,glycan array binding signal (z-score),[30],0.229
same,glycan array binding signal (z-score),[31],-0.234
same,glycan array binding signal (z-score),[32],-0.386
same,glycan array binding signal (z-score),[33],-0.302
same,glycan array binding signal (z-score),[34],-0.216
same,glycan array binding signal (z-score),[35],-0.252
same,glycan array binding signal (z-score),[36],-0.381
same,glycan array binding signal (z-score),[37],-0.238
same,glycan array binding signal (z-score),[38],-0.032
same,glycan array binding signal (z-score),[39],-0.205
same,glycan array binding signal (z-score),[40],-0.001
same,glycan array binding signal (z-score),[41],0.123
same,glycan array binding signal (z-score),[42],-0.285
same,glycan array binding signal (z-score),[43],-0.514
same,glycan array binding signal (z-score),[44],-0.298
same,glycan array binding signal (z-score),[45],0.034
